Changes are numbered by the printed parent chain; changes in the protein carry UniProt numbers. The list shows a part of the results.
T1: RBFOX1 RRM (Homo sapiens, UniProt Q9NWB1 109-208)
T1 sequence: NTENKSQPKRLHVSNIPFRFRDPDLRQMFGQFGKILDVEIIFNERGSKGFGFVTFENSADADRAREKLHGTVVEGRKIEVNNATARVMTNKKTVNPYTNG

B1: UUUGGAG (DNA:RNA)
RNA: GGGAGACCGGAAUUCAGAUUGUCCUUUGGAGUUAAAUCCCGUCGUAGCCACCA
DNA 1: CAATCTGAATTCCGGTCTCCC
DNA 2: TGGTGGCTACGACGGGATT
B2: AGGCUGC (DNA:RNA)
RNA: GGGAGACCGGAAUUCAGAUUGUCCAGGCUGCUUAAAUCCCGUCGUAGCCACCA
DNA 1: CAATCTGAATTCCGGTCTCCC
DNA 2: TGGTGGCTACGACGGGATT
B3: CGAGCAU (DNA:RNA)
RNA: B1 RNA with U25C, U26G, U27A, G29C, G31U
DNA 1: CAATCTGAATTCCGGTCTCCC
DNA 2: TGGTGGCTACGACGGGATT
B4: GCCCGCG (DNA:RNA)
RNA: B1 RNA with U25G, U26C, U27C, G28C, A30C
DNA 1: CAATCTGAATTCCGGTCTCCC
DNA 2: TGGTGGCTACGACGGGATT
B5: CAUUGUA (DNA:RNA)
RNA: B1 RNA with U25C, U26A, G28U, A30U, G31A
DNA 1: CAATCTGAATTCCGGTCTCCC
DNA 2: TGGTGGCTACGACGGGATT
B6: UCACGUC (DNA:RNA)
RNA: B2 RNA with A25U, G26C, G27A, U29G, G30U
DNA 1: CAATCTGAATTCCGGTCTCCC
DNA 2: TGGTGGCTACGACGGGATT
B7: ACGAGUU (DNA:RNA)
RNA: B2 RNA with G26C, C28A, U29G, G30U, C31U
DNA 1: CAATCTGAATTCCGGTCTCCC
DNA 2: TGGTGGCTACGACGGGATT
B8: GCAUUAA (DNA:RNA)
RNA: B2 RNA with A25G, G26C, G27A, C28U, G30A, C31A
DNA 1: CAATCTGAATTCCGGTCTCCC
DNA 2: TGGTGGCTACGACGGGATT
B9: CGGGUCG (DNA:RNA)
RNA: B2 RNA with A25C, C28G, G30C, C31G
DNA 1: CAATCTGAATTCCGGTCTCCC
DNA 2: TGGTGGCTACGACGGGATT
B10: GCGGUGC (DNA:RNA)
RNA: B2 RNA with A25G, G26C, C28G
DNA 1: CAATCTGAATTCCGGTCTCCC
DNA 2: TGGTGGCTACGACGGGATT
B11: CCCUAAG (DNA:RNA)
RNA: B1 RNA with U25C, U26C, U27C, G28U, G29A
DNA 1: CAATCTGAATTCCGGTCTCCC
DNA 2: TGGTGGCTACGACGGGATT
B12: UAAGUGA (DNA:RNA)
RNA: B2 RNA with A25U, G26A, G27A, C28G, C31A
DNA 1: CAATCTGAATTCCGGTCTCCC
DNA 2: TGGTGGCTACGACGGGATT
B13: AGGCUUA (DNA:RNA)
RNA: B2 RNA with G30U, C31A
DNA 1: CAATCTGAATTCCGGTCTCCC
DNA 2: TGGTGGCTACGACGGGATT
B14: GUCGGAU (DNA:RNA)
RNA: B1 RNA with U25G, U27C, G31U
DNA 1: CAATCTGAATTCCGGTCTCCC
DNA 2: TGGTGGCTACGACGGGATT
B15: UGAAAGG (DNA:RNA)
RNA: B2 RNA with A25U, G27A, C28A, U29A, C31G
DNA 1: CAATCTGAATTCCGGTCTCCC
DNA 2: TGGTGGCTACGACGGGATT
B16: CUGAGGA (DNA:RNA)
RNA: B2 RNA with A25C, G26U, C28A, U29G, C31A
DNA 1: CAATCTGAATTCCGGTCTCCC
DNA 2: TGGTGGCTACGACGGGATT
B17: GUGAUUA (DNA:RNA)
RNA: B2 RNA with A25G, G26U, C28A, G30U, C31A
DNA 1: CAATCTGAATTCCGGTCTCCC
DNA 2: TGGTGGCTACGACGGGATT
B18: AUCGCAA (DNA:RNA)
RNA: B1 RNA with U25A, U27C, G29C, G31A
DNA 1: CAATCTGAATTCCGGTCTCCC
DNA 2: TGGTGGCTACGACGGGATT
B19: CGGCUGA (DNA:RNA)
RNA: B2 RNA with A25C, C31A
DNA 1: CAATCTGAATTCCGGTCTCCC
DNA 2: TGGTGGCTACGACGGGATT
B20: CGAUGUA (DNA:RNA)
RNA: B2 RNA with A25C, G27A, C28U, U29G, G30U, C31A
DNA 1: CAATCTGAATTCCGGTCTCCC
DNA 2: TGGTGGCTACGACGGGATT
B21: UAUGUAA (DNA:RNA)
RNA: B1 RNA with U26A, G29U, G31A
DNA 1: CAATCTGAATTCCGGTCTCCC
DNA 2: TGGTGGCTACGACGGGATT
B22: UCAAAUA (DNA:RNA)
RNA: B1 RNA with U26C, U27A, G28A, G29A, A30U, G31A
DNA 1: CAATCTGAATTCCGGTCTCCC
DNA 2: TGGTGGCTACGACGGGATT
B23: CAAAUCU (DNA:RNA)
RNA: B2 RNA with A25C, G26A, G27A, C28A, G30C, C31U
DNA 1: CAATCTGAATTCCGGTCTCCC
DNA 2: TGGTGGCTACGACGGGATT
B24: AUUCGGU (DNA:RNA)
RNA: B2 RNA with G26U, G27U, U29G, C31U
DNA 1: CAATCTGAATTCCGGTCTCCC
DNA 2: TGGTGGCTACGACGGGATT
B25: UCAGGCA (DNA:RNA)
RNA: B1 RNA with U26C, U27A, A30C, G31A
DNA 1: CAATCTGAATTCCGGTCTCCC
DNA 2: TGGTGGCTACGACGGGATT
B26: AGAUGCA (DNA:RNA)
RNA: B2 RNA with G27A, C28U, U29G, G30C, C31A
DNA 1: CAATCTGAATTCCGGTCTCCC
DNA 2: TGGTGGCTACGACGGGATT
B27: UCGGAUG (DNA:RNA)
RNA: B1 RNA with U26C, U27G, G29A, A30U
DNA 1: CAATCTGAATTCCGGTCTCCC
DNA 2: TGGTGGCTACGACGGGATT
B28: ACACAAA (DNA:RNA)
RNA: B2 RNA with G26C, G27A, U29A, G30A, C31A
DNA 1: CAATCTGAATTCCGGTCTCCC
DNA 2: TGGTGGCTACGACGGGATT
B29: CAAGACG (DNA:RNA)
RNA: B1 RNA with U25C, U26A, U27A, G29A, A30C
DNA 1: CAATCTGAATTCCGGTCTCCC
DNA 2: TGGTGGCTACGACGGGATT
B30: UUAGAUG (DNA:RNA)
RNA: B1 RNA with U27A, G29A, A30U
DNA 1: CAATCTGAATTCCGGTCTCCC
DNA 2: TGGTGGCTACGACGGGATT
B31: UCACAAA (DNA:RNA)
RNA: B1 RNA with U26C, U27A, G28C, G29A, G31A
DNA 1: CAATCTGAATTCCGGTCTCCC
DNA 2: TGGTGGCTACGACGGGATT

Target: T1, RBFOX1 RRM
Assay: EMSA; HiTS-Eq, 1 nM pool, 10 min; buffer printed only for the single-RNA assays: 10 mM Tris pH 7.5, 150 mM NaCl, 3.4 mM EDTA, 0.001% NP-40, 30 C
Conditions: tags: His6 N-terminal (pET28a); label: 5' 32P
Method in brief: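 Purified RbFox RRM (wild type or mutant) was equilibrated for 10 min in 50 µL with 1 nM of a 5′-radiolabelled pool of RNA with 7 randomized nucleotides, its flanks annealed to DNA oligonucleotides, across increasing protein concentrations. Free RNA was separated by 8% native PAGE, excised, reverse-transcribed, PCR-barcoded and sequenced on an Illumina HiSeq 2500. Relative association constants came from read-count changes of each variant against the control reaction, normalised to the cognate motif.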

Row | Binder | binding signal
1 | B1 | 0.00451 KA relative to UGCAUGU
2 | B2 | 0.0167 KA relative to UGCAUGU
3 | B3 | 0.00976 KA relative to UGCAUGU
4 | B4 | 0.0199 KA relative to UGCAUGU
5 | B5 | 0.00259 KA relative to UGCAUGU
6 | B6 | 0.00782 KA relative to UGCAUGU
7 | B7 | 0.00796 KA relative to UGCAUGU
8 | B8 | 0.00489 KA relative to UGCAUGU
9 | B9 | 0.0322 KA relative to UGCAUGU
10 | B10 | 0.0236 KA relative to UGCAUGU
11 | B11 | 0.00296 KA relative to UGCAUGU
12 | B12 | 0.0103 KA relative to UGCAUGU
13 | B13 | 0.0058 KA relative to UGCAUGU
14 | B14 | 0.00831 KA relative to UGCAUGU
15 | B15 | 0.0102 KA relative to UGCAUGU
16 | B16 | 0.007 KA relative to UGCAUGU

Row | Binder | binding signal
17 | B17 | 0.00845 KA relative to UGCAUGU
18 | B18 | 0.00515 KA relative to UGCAUGU
19 | B19 | 0.022 KA relative to UGCAUGU
20 | B20 | 0.00582 KA relative to UGCAUGU
21 | B21 | 0.0122 KA relative to UGCAUGU
22 | B22 | 0.0028 KA relative to UGCAUGU
23 | B23 | 0.00044 KA relative to UGCAUGU
24 | B24 | 0.00855 KA relative to UGCAUGU
25 | B25 | 0.0133 KA relative to UGCAUGU
26 | B26 | 0.0164 KA relative to UGCAUGU
27 | B27 | 0.0118 KA relative to UGCAUGU
28 | B28 | 0.000724 KA relative to UGCAUGU
29 | B29 | 0.00393 KA relative to UGCAUGU
30 | B30 | 0.0112 KA relative to UGCAUGU
31 | B31 | 0.00202 KA relative to UGCAUGU

Reference: article PMC9911399, “Two distinct binding modes provide the RNA-binding protein RbFox with extraordinary sequence specificity”
